Test results published in paper PMC8519427, “High affinity associations with α-SNAP enable calcium entry via Orai1 channels” (PLoS ONE, 2021).

Target: T1, human α-SNAP with an Avitag and a C-terminal 6xHis tag (human, UniProt P54920 1-295, biotin (in vitro biotinylated using BirA ligase; Avitag))
T1 construct: alpha-soluble NSF attachment protein (α-SNAP), human, amplified from HEK 293 cDNA; The methods describe a single preparation; The biotinylated protein was captured on streptavidin tips for BLI; also called biotinylated α-SNAP; Avi-Tagged human α-SNAP; source: E. coli LEMO21(DE3), pET28b, purified; in vitro biotinylated with BirA ligase; not shown: Avitag, C-terminal, kept
T1 sequence (looked up): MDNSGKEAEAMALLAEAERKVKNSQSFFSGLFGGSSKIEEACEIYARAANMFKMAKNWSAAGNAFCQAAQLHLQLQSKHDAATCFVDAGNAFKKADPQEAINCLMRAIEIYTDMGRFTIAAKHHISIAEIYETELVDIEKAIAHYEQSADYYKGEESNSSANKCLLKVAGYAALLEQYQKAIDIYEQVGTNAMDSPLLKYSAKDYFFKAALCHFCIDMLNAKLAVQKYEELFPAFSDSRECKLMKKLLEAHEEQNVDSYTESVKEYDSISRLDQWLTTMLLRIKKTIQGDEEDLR
Assay: BLI; Octet RED96, 25°C; 0.25 μM biotinylated α-SNAP loaded on streptavidin biosensor tips; analyte: purified Orai1 or Stim1 fragments at varying concentrations; PBS with 2 mg/ml BSA and 0.02% Tween-20; association 5 min, dissociation 10 min; double referencing; global fit to the 1:1 or 2:1 binding model
Conditions: both partners purified

Kd: 158 ± 1.2 nM
koff: 0.000422 s⁻¹
kon: 2680 ± 12.5 M⁻¹ s⁻¹
B1: Stim1 […], untagged (domain or fragment)
chain: not shown
notes: Stim1, human, […], amplified from the human YFP-Stim1 plasmid; Sub-cloned in the pSUMO vector; The SUMO tag was removed with Ulp1 and trapped on a HisTrap column; also called soluble Stim1 […]; purified human Stim1 […]; source: E. coli LEMO21(DE3), purified (HisTrap, Ulp1 cleavage, second HisTrap, ion exchange)
